The values that follow come from the supplement of paper PMC6206098.

Data set [1] has as its system 3LL. The data set can be described thus: cell viability relative to siNT1 control; higher = less toxic. As to conditions: concentration: 10 nM; 96 h; Mus musculus.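 Further: Luminescence-based viability of cells reverse transfected in 384-well plates with lipid-complexed siRNAs built on a non-toxic 19mer backbone whose passenger strand carries 2′-O-methyl groups at positions 1 and 2, triplicates.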
Data set [2] concerns H460. The data set can be described thus: cell viability relative to lipid-only control; HeyA8 human ovarian and H460 human lung cancer; M565 mouse liver and 3LL mouse lung cancer; siNT1 is a non-toxic control siRNA; higher = less toxic. The note with it: concentration: 10 nM; 96 h; Homo sapiens.
The subject of data set [3] is HeyA8. Described as above. As to conditions: concentration: 10 nM; 96 h; Homo sapiens.
Data set [4] relates to M565. Described as above. As to conditions: concentration: 10 nM; 96 h; Mus musculus.

± gives the uncertainty stated by the source. Shown are siRNA guide strands that differ only in the seed, positions 2 to 7.
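Wherever cell viability relative to lipid-only control is given: reverse lipid transfection in 384-well plates, in triplicate, of duplexes on a non-toxic 19mer backbone with passenger strand 2′-O-methylated at positions 1 and 2, luminescence viability read-out.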

Take UGGGAGUACAUGUAAACCAAA: the cell viability was 11.5 ± 0.2% in data set [1], 12 ± 0.22% in data set [2], 2.47 ± 0.33% in data set [3] and 14.4 ± 1.5% in data set [4].
Taken in the same sequence, the figures for UGCUUGUACAUGUAAACCAAA were 52.8 ± 5.8%, 57.4 ± 9.2%, 11.9 ± 0.54% and 29.2 ± 6.6%.
For UCGCUCUACAUGUAAACCAAA, in that order: 79.4 ± 17%, 61.2 ± 10%, 47.5 ± 3% and 75.2 ± 8.2%.
Taken in the same sequence, the figures for UCCUGACACAUGUAAACCAAA were 27.4 ± 3.1%, 43.6 ± 3.2%, 13.1 ± 1.9% and 7.29 ± 3.4%.
In the case of UAAGGCAACAUGUAAACCAAA, the cell viability in data set [1] amounted to 71.4 ± 4.6%; in data set [2] it was 60 ± 5.3%; in data set [3] it was 71.1 ± 7.9%; in data set [4] it was 26.2 ± 6.3%.
As for UCAUUGGACAUGUAAACCAAA, the cell viability in data set [1] was determined as 83.2 ± 12%; in data set [2], 36.7 ± 7.3%; in data set [3] it was 23.7 ± 1.4%; in data set [4] it was 39.5 ± 7.5%.
For UGCGUGUACAUGUAAACCAAA, in that order: 73.8 ± 12%, 67.3 ± 4.4%, 46.3 ± 4.9% and 21 ± 2.9%.
Taken in the same sequence, the figures for UAAUCUAACAUGUAAACCAAA were 123 ± 7.4%, 113 ± 18%, 107 ± 6.4% and 89.6 ± 19%.
Taken in the same sequence, the figures for UUCAGGCACAUGUAAACCAAA were 21.1 ± 2.2%, 29.5 ± 3%, 22 ± 3.4% and 18.7 ± 3.6%.
As for UUUUACGACAUGUAAACCAAA, the cell viability in data set [1] came to 98.1 ± 9.1%; in data set [2], 63.5 ± 4.7%; in data set [3] it was 101 ± 3.1%; in data set [4] it was 80.6 ± 16%.
Taken in the same sequence, the figures for UUAUUGCACAUGUAAACCAAA were 39.9 ± 3.9%, 36.4 ± 5.1%, 30 ± 3.9% and 42 ± 5.1%.
Regarding UUGGAGCACAUGUAAACCAAA, the cell viability in data set [1] was 7.38 ± 0.93%; in data set [2], 27.7 ± 4.1%; in data set [3] it was 27.4 ± 0.9%; in data set [4], 4.25 ± 0.95%.
Taken in the same sequence, the figures for UACCAACACAUGUAAACCAAA were 66.1 ± 8.3%, 55.7 ± 2.9%, 78.4 ± 9.2% and 21.7 ± 3.3%.
Regarding UUCUUCAACAUGUAAACCAAA, the cell viability in data set [1] is 62.1 ± 12%; in data set [2], 62.6 ± 6.5%; in data set [3], 72.6 ± 2.8%; in data set [4], 132 ± 28%.
On to UAUUCAAACAUGUAAACCAAA, for which the cell viability in data set [1] was 99.9 ± 15%; in data set [2], 89.2 ± 29%; in data set [3], 99.7 ± 11%; in data set [4], 85 ± 8.6%.
As for UACCUGUACAUGUAAACCAAA, the cell viability in data set [1] was 38.7 ± 11%; in data set [2], 49.6 ± 2.4%; in data set [3], 38.9 ± 2.3%; in data set [4] it was 24.1 ± 6.2%.
Taken in the same sequence, the figures for UCCGGUGACAUGUAAACCAAA were 103 ± 29%, 56.1 ± 9.1%, 74.5 ± 16% and 49.7 ± 6.7%.
Taken in the same sequence, the figures for UAAGGGUACAUGUAAACCAAA were 76.4 ± 9.5%, 66.5 ± 0.79%, 39.1 ± 3.4% and 19.7 ± 4.3%.
Taken in the same sequence, the figures for UAAUUCUACAUGUAAACCAAA were 83.8 ± 2.1%, 99 ± 8.4%, 76.4 ± 4.8% and 53.7 ± 9%.
As for UUGUGUGACAUGUAAACCAAA, the cell viability is 46.5 ± 5.4% in data set [1], 51.2 ± 6.5% in data set [2], 41.2 ± 2.7% in data set [3] and 87.3 ± 16% in data set [4].
Taken in the same sequence, the figures for UGAGCGAACAUGUAAACCAAA were 86.4 ± 11%, 71.3 ± 9.4%, 74.5 ± 1% and 34.1 ± 4.6%.
For UAAAAUUACAUGUAAACCAAA, in that order: 115 ± 19%, 65.6 ± 3.6%, 98.7 ± 13% and 90 ± 4.9%.
In the case of UGUGGAUACAUGUAAACCAAA, the cell viability in data set [1] worked out at 70 ± 6.7%; in data set [2] it was 46.4 ± 12%; in data set [3], 12.1 ± 1.5%; in data set [4], 16.2 ± 3.9%.
Turning to UCAAGUAACAUGUAAACCAAA, the cell viability was determined as 97.7 ± 13% in data set [1], 69.2 ± 5.5% in data set [2], 84.8 ± 4.7% in data set [3] and 58.7 ± 2.6% in data set [4].
Consider UAGCGGUACAUGUAAACCAAA, for which the cell viability in data set [1] amounted to 61 ± 3.5%; in data set [2], 36.96 ± 0.18%; in data set [3], 7.54 ± 0.9%; in data set [4] it was 19.7 ± 6.3%.
As to UUUCGUGACAUGUAAACCAAA, the cell viability in data set [1] amounted to 101 ± 4.7%; in data set [2], 72.7 ± 5.4%; in data set [3], 101 ± 4.2%; in data set [4], 84.4 ± 5.3%.
For UAGCGGGACAUGUAAACCAAA, in that order: 48 ± 6.2%, 31.5 ± 4.7%, 8.36 ± 0.3% and 42.1 ± 9.5%.
Taken in the same sequence, the figures for UGGGAGGACAUGUAAACCAAA were 35 ± 8.8%, 17.7 ± 0.36%, 8.18 ± 0.81% and 27.2 ± 6.4%.
For UCCAUAAACAUGUAAACCAAA, in that order: 89.3 ± 19%, 53.7 ± 9.6%, 92.4 ± 5% and 71.8 ± 8.5%.
Consider UCGGCCCACAUGUAAACCAAA, for which the cell viability came out at 14 ± 4.9% in data set [1], 48.9 ± 5.4% in data set [2], 42.1 ± 3.5% in data set [3] and 29.7 ± 3.2% in data set [4].

The cell viability is a read-out of living cells in per cent, often relative to untreated cells.
